# Reference: publication PMC4336329 (PLoS ONE, 2015)
# The campaign covered roughly 310,000 compounds. About 2,200 (0.71%) showed an effect of 50% or more. Effects have a minus sign here. The list shows a part of the results.
# Molecular target: human ether-à-go-go-related gene (hERG) potassium channel (human, UniProt Q12809)
# Experiment: primary screen, population patch clamp on CHO cells stably expressing hERG
# Chain of human ether-à-go-go-related gene (hERG) potassium channel (Q12809 whole entry, looked up): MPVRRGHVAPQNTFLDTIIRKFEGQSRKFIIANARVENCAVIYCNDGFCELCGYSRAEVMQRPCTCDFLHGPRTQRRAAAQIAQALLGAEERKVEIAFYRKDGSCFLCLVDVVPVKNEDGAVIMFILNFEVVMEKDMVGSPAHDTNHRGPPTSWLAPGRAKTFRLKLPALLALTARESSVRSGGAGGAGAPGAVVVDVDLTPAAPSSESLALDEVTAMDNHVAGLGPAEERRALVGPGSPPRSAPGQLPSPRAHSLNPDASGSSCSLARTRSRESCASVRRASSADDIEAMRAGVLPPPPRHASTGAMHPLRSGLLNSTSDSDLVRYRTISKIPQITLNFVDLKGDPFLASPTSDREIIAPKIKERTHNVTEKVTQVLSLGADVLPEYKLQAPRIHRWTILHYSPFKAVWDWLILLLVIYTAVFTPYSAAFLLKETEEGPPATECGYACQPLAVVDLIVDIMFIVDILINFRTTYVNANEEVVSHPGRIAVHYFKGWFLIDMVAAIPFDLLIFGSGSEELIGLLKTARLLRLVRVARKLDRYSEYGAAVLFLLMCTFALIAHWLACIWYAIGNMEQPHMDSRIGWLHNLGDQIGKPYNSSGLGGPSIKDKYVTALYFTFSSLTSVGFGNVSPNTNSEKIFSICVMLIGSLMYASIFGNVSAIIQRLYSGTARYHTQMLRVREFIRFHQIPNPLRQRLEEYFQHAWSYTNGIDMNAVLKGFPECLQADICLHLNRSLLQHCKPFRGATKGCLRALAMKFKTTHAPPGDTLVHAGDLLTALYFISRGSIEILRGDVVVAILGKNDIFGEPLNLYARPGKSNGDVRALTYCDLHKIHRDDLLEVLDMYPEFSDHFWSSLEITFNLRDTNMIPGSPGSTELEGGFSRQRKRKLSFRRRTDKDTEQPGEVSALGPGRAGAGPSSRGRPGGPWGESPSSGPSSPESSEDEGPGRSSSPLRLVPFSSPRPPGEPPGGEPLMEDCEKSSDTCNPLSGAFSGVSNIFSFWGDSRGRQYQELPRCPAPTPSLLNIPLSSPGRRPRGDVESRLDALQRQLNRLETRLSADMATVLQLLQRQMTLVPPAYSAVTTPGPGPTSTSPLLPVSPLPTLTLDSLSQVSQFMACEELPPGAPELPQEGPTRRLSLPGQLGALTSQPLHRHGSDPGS
row,Compound,"hERG current change (%, negative = inhibition) at 1uM [%]"
1,CCC(=O)Nc1ccc(NC(=S)NC(=O)c2oc3ccccc3c2C)cc1,9.94
2,COc1ccc(-c2nc(-c3ccccc3)[nH]c(=O)c2C#N)cc1,18.4
3,O=CNCCCc1nc2ccccc2n1CCc1ccccc1,10.3
4,Cc1cccc2sc(NC(=O)C3=NN(c4ccccc4)C(=O)CC3)nc12,-3.7
5,COC(=O)c1cc(NC(=O)Nc2ccccc2OC)cc(C(=O)OC)c1,-2.02
6,COC(C[C@H]1O[C@@H]1[C@H](O)COCc1ccccc1)OC,12.7
7,O=c1[nH]c(N2CCCCC2)nc2ncn(Cc3ccccc3)c12,4.24
8,NS(=O)(=O)c1ccc(NC(=O)COC(=O)c2cccc(S(=O)(=O)N3CCCC3)c2)cc1,8.5
9,COC(=O)Cc1ccc(NC(=S)NNC(=O)c2ccccc2Br)cc1,8.41
10,NC(=O)C1CCN(C(=O)CN(c2cccc(C(F)(F)F)c2)S(=O)(=O)c2ccccc2)CC1,0.903
11,CC1CCC2(CC1)NC(=S)N(c1ccccc1)N2 (stereo not drawn),11.1
12,CCCOc1ccc(C(=O)Nc2cccnc2)cc1,11.5
13,COc1ccc(C(=O)C2CCCN(C(=O)c3cccnc3OC)C2)cc1F (stereo not drawn),7.24
14,Nc1nnn(CC(=O)N/N=C/c2ccco2)n1,13.2
15,CC1=NN(c2ccccc2)C(=O)C1N=Nc1ccc(C)cc1 (stereo not drawn),11.1
16,CCc1cc2c(=O)c(-c3nc4ccccc4n3C)c(C(C)C)oc2c(CN2CCN(C)CC2)c1O,6.41
17,Cc1c(Cc2ccc3c(c2)OCO3)sc(NC(=O)c2ccccc2)c1C(N)=O,7.04
18,Nc1nnc(N2CCCCC2)s1,4.04
19,Cn1c(O)c(/C=C2/C=CC=N2)c(=O)[nH]c1=O,5.15
20,Cc1ccc2[nH]c(=O)c(CN(Cc3cccnc3)C(=O)c3ccncc3)cc2c1,-1.51
21,CN(c1ccccc1C(=O)NC1CCCCC1)S(=O)(=O)c1ccccc1,13.6
22,CCCOC1OC(=O)c2c1ccc(OC)c2OC (stereo not drawn),11.9
23,CCCCn1c(CN2CCN(C(=O)c3ccco3)CC2)nc2c1c(=O)n(C)c(=O)n2C,-7.1

row,Compound,"hERG current change (%, negative = inhibition) at 1uM [%]"
1,COc1ccc(/C=C(\NC(=O)c2ccccc2)C(=O)NC2CCS(=O)(=O)C2)cc1 (stereo not drawn),1.37
2,COc1ccc(CNC(=O)COC(=O)CCCOc2ccc(Cl)cc2Cl)cc1OC,10.4
3,Cc1cc(S(=O)(=O)N2CCCC2)ccc1OCC(=O)N1CCCCC1,-8
4,O=C(CCCCCCCC(=O)c1ccccc1)c1ccccc1,13.1
5,COc1ccc(-n2nnnc2SCC(=O)Nc2ccc3c(c2)OCCO3)c(OC)c1,16.9
6,O=C(O)c1cccc(NC(=O)c2cn(-c3ccccc3)nc2-c2cc3ccccc3o2)c1,1.13
7,O=C(Nc1ccccc1)c1oc2ccccc2c1NC(=O)C1CC1,5.44
8,C=CCC(C#Cc1ccc(C)cc1)N(CC)CC (stereo not drawn),7.85
9,Cc1ccc(CNC(=O)c2ccc(N3CCC4(CC3)CC(c3ccccc3)=NO4)c(N)c2)cc1,10.8
10,COc1cc(OC)cc(C(=O)NC2CCCCCCC2)c1,3.21
11,O=C(O)COn1c(-c2ccccc2)nc2ccc([N+](=O)[O-])cc21,15.7
12,OCCCC1CCCN(Cc2cn[nH]c2-c2ccc(F)cc2F)C1 (stereo not drawn),9.16
13,Cc1cc(C)n2nc(C(=O)NC(c3ccccc3)c3ccccc3)nc2n1,9.57
14,Cc1noc2ncnc(Oc3ccc(Cl)cc3Cl)c12,8.47
15,CCCC(=O)Nc1ccc(NC(=S)NC(=O)c2cccs2)cc1,13.1
16,CC(=O)N1CC2(NC(=O)c3ccccc3N2)c2ccccc21 (stereo not drawn),10.2
17,COc1ccc(C2=NS(=O)(=O)N(C)C(C(=O)NCc3ccccn3)=C2)cc1,-5.31
18,O=C1c2ccccc2C(=O)N1OS(=O)(=O)c1ccc(F)cc1,13.9
19,CCOC(=O)Nc1cccc(Nc2ccccc2)c1,-24.3
20,Cn1nc(C(=O)NCc2ccc(F)cc2)c2ccccc2c1=O,9.21
21,COc1cccc(NC(=O)COc2ccccc2C(N)=O)c1,-0.822
22,CCn1c2ccc(F)cc2c2nnc(NN)nc21,3.31
23,CCCNC(=O)Cn1cnc2sc(C(=O)N3CCN(c4ccc(F)cc4)CC3)c(C)c2c1=O,-8.15

row,Compound,"hERG current change (%, negative = inhibition) at 1uM [%]"
1,O=C(NCCOc1ccccc1Cl)c1cc(F)c(F)cc1Cl,5.5
2,Cc1cc(C(=O)OCC(=O)N2c3ccccc3NC(=O)C2(C)C)c(C)n1-c1ccccc1,12.7
3,Cc1ccccc1-c1nnn(CC(=O)Nc2cccc(S(N)(=O)=O)c2)n1,-0.834
4,Cc1ccccc1OCC(=O)N/N=C/c1ccc2c(c1)OCCO2,2.07
5,O=C(O)COc1ccc(/C=N/NC(=O)c2cccc3ccccc23)cc1,13.9
6,CN(Cc1nc2ccccc2s1)C(=O)c1ccc(F)cc1,2.72
7,CCOC(=O)NC(=O)CSc1nnnn1-c1ccccc1,10.4
8,C/C(=N\NC(N)=S)C12CC3CC(CC(C3)C1)C2,14.1
9,COc1ccc(CNC(=S)N/N=C/c2ccncc2)cc1,7.9
10,CCCOc1ccc(NC(=O)C(=O)NCCCn2ccnc2)cc1,-9.78
11,O=C(O)c1cccc(CN2C(=O)S/C(=C/c3ccccc3[N+](=O)[O-])C2=O)c1,10.7
12,Cc1ccc(NC(=O)NCCSc2ccc(C)cc2)cc1,11.3
13,Cc1cc(/C=N/NC(=O)C(O)(c2ccccc2)c2ccccc2)c(C)n1-c1ccc(C(=O)O)cc1,15.1
14,O=C(CN1C(=O)/C(=C/c2c(F)cccc2Cl)Oc2ccccc21)NCc1ccco1,-0.908
15,CCOC(=O)c1cnc2c(C(=O)OC)cccc2c1NCCN1CCOCC1,-47.1
16,O=C(Nc1ccccc1Cl)c1cccc(COc2cc(Cl)ccc2Cl)c1,7.02
17,Cn1c(=O)c2[nH]c(COc3ccc(C(C)(C)C)cc3)nc2n(C)c1=O,-16.8
18,CCOC(=O)c1[nH]c2ccc(OCC)cc2c1NC(=O)CN1CCN(c2ccccc2)CC1,15.9
19,O=C(O)CC(NC(=O)C(c1ccccc1)c1ccccc1)c1cccc([N+](=O)[O-])c1 (stereo not drawn),3.66
20,CCOC(=O)c1c(N)sc(C(=O)N(C)C)c1CN1CCOCC1,-4.21
21,Cc1c(N2C(=O)CS/C2=N\N=C\c2ccc(Cl)cc2)c(=O)n(-c2ccccc2)n1C,-11
22,O=[N+]([O-])c1ccc(/C=N\NS(=O)(=O)c2ccc(F)cc2)o1,2.37
23,Cc1nn(C(=O)Cn2ccc([N+](=O)[O-])n2)c(C)c1Cl,12

row,Compound,"hERG current change (%, negative = inhibition) at 1uM [%]"
1,O=C(Nc1cccc(Cl)c1)Nc1ccc2nccnc2c1,14.6
2,COc1cc(OC)cc(C(=O)NCc2n[nH]c(=S)n2-c2ccccc2OC)c1,17.2
3,O=C(NCc1ccco1)C1CCCN1S(=O)(=O)c1ccc2ccccc2c1 (stereo not drawn),10.9
4,CC(C)CC1NC(=O)N(CC(=O)N2CCN(S(=O)(=O)c3ccc(Cl)cc3)CC2)C1=O (stereo not drawn),-13
5,CCOC(=O)CNC(=O)c1sc(NC(=O)/C=C/c2ccccc2)nc1C,11.1
6,CCOC(=O)c1cnc2c(C(F)(F)F)cccc2c1NCCCN1CCOCC1,3.64
7,COc1cccc(OC)c1C(=O)OCC(=O)N1CC(C)CC(C)C1 (stereo not drawn),16.3
8,Cc1cccc(NC(=S)NC(NC(=O)c2ccco2)C(Cl)(Cl)Cl)c1 (stereo not drawn),13.1
9,CCCNC(=S)NNC(=O)c1cc(-c2cccnc2)nc2ccccc12,13
10,COCC(=O)NNC(=O)c1ccccc1OC,15
11,CSc1ncccc1C(=O)Nc1cccc(S(=O)(=O)N2CCCCC2)c1,-20.1
12,O=S(=O)(c1ccsc1)N1CC=C(c2ccccc2)CC1,15.2
13,N=c1sc2ccccc2n1-c1ccccc1,-0.156
14,O=C(NCCC1=CCCCC1)C1CCN(S(=O)(=O)c2ccc(Br)s2)CC1,15
15,Cc1cccc(NC(=O)CNC(=O)CN2CCN(C)CC2)c1C,8.17
16,Cn1cc(C(=O)N2CCCCC2)c2ccccc21,13.7
17,COc1ccc(NC(=O)CN(C)C(=O)C2CSC3(C)CCC(=O)N23)cc1 (stereo not drawn),0.725
18,CS(=O)(=O)c1ccc(Cl)c(NC(=O)CSc2nc3ccccc3c(=O)n2Cc2ccco2)c1,7.36
19,CCn1c(O)c(N=Nc2ccc(Cl)c(C(=O)O)c2)c2ccccc21,13.2
20,N#CC(Sc1ccccn1)c1ccc(Cl)cc1Cl (stereo not drawn),13.8
21,Cc1ccc(NC(=S)Nc2ccc(S(=O)(=O)N3CCOCC3)cc2)cc1S(=O)(=O)N1CCOCC1,-0.299
